Out of some 220,000 compounds screened, about 16,000 (7.3%) were called active. Inconclusive means that the source gave no clear call. Such entries were picked first, then a sample of the others. The call rests on the fitted dose curve; in most records, active means well fitted inhibition curve with a large enough effect (not every such curve was filed as active); inconclusive means small, poorly fitted or top-dose-only effect, or another doubt; inactive means no such curve, though single readings can be large or run the other way. Potencies of inconclusive entries are left out as doubtful fits.
molecular target: Aldehyde dehydrogenase 1A1 (Homo sapiens) (UniProt P00352); experiment: qHTS Assay for Inhibitors of Aldehyde Dehydrogenase 1 (ALDH1A1); settings: Purified ALDH1A1, NADH fluorescence, propionaldehyde substrate; series mostly up to 75.3 µM; activity, negative = inhibition: at the top concentration;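 on activity, negative = inhibition: plate controls were no enzyme wells and a reference inhibitor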
Potency means the concentration at half of the fitted maximal effect; tags describe the fitted curve by direction and shape.

Sequence of UniProt P00352 (P00352 whole entry, looked up): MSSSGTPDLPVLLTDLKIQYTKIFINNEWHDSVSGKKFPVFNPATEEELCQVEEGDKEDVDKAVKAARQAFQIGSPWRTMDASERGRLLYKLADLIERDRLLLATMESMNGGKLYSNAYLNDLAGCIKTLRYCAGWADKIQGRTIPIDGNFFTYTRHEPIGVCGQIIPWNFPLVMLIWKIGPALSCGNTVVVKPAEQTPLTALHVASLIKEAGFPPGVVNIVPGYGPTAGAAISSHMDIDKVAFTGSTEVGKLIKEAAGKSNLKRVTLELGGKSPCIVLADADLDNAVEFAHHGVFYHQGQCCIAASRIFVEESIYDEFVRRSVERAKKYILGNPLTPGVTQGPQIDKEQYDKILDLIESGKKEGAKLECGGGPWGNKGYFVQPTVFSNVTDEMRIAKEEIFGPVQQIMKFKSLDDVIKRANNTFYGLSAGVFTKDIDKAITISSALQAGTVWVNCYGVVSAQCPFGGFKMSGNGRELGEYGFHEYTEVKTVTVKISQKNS

SMILES | Potency | activity, negative = inhibition
COc1ccc(C2=Nn3c(nnc3C3CCCCC3)SC2)cc1OC | inconclusive [inhibitor, partial curve] | 
O=C(O)/C=C\C(=O)Nc1ccc(N2CCN(c3ccc(F)cc3)CC2)cc1 | active: 8.91 µM | 
CCCc1nc2oc3cc(OC)ccc3c(=O)c2c(=O)n1Cc1ccco1 | inconclusive [inhibitor, single point] | 
CCC(C)NC(=O)c1ccccc1-c1ccccc1C(=O)NC(C)CC (centres undefined) |  | inactive: -8.8%
CCOc1ccc(S(=O)(=O)c2c(C(=O)c3ccc(C)cc3)cnc3cc4c(cc23)OCCO4)cc1 | inconclusive [inhibitor, partial curve] | 
CCOc1ccccc1C(=O)OCC(=O)Nc1ccc(N2CCCCC2)cc1 | inconclusive [inhibitor, partial curve] | 
CCCCN1CCc2c([nH]c3ccccc23)C1=O | inconclusive [inhibitor, single point] | 
Cc1ccc(C2=NN=C(NC(=O)CSc3nncn3C)SC2)cc1 | inconclusive [inhibitor, single point] | 
CCOC(=O)C(=O)c1csc(NC(=O)CCSc2ccc(C)cc2)n1 |  | inactive: -7.09%
Cc1cc(C)n(C(=O)CCCC(=O)n2nc(C)cc2C)n1 |  | inactive: 0.008%
Cc1cc(=O)oc2cc(OCC(=O)OCC(=O)NCc3ccc4c(c3)OCO4)ccc12 | inconclusive [inhibitor, partial curve] | 
COc1ccc(Cl)cc1NC(=O)CCN1CCN(c2ccccc2C)CC1 | inconclusive [inhibitor, single point] | 
Cc1ccccc1Cn1cc(/C=N/n2cnnc2)c2ccccc21 | inconclusive [inhibitor, single point] | 
O=C(O)c1cccc2cccc(-c3cccc4cccc(C(=O)O)c34)c12 |  | inactive: 3.59% [at 13.5 µM]
O=c1c(-c2nc3ccccc3s2)cccn1Cc1ccc(Cl)c(Cl)c1 | inconclusive [inhibitor, partial curve] | 
CC(C)CCn1c(SCC(N)=O)nc2c1c(=O)n(C)c(=O)n2C | inconclusive [inhibitor, partial curve] | 
CC(=O)c1sc(NC(=O)COc2ccccc2)nc1C | inconclusive [inhibitor, partial curve] | 
COCC(=O)Nc1nc(-c2ccccc2)c(C)s1 | inconclusive [inhibitor, single point] | 
CO[C@H]1OC[C@@]2(C)[C@@H]3C4=C(CN2C(=O)OC(C)(C)C)[C@H](C)[C@H](CO)[C@H](CO)[C@H]4CC[C@H]13 |  | inactive: -6.42%

From PubChem BioAssay AID1030 (National Center for Advancing Translational Sciences (NCATS), 2008)
